Experimental findings from the RNAGym collection of RNA variant scans (doi:10.1093/nar/gkz1192) are described below.

B1: CPEB3 Ribozyme (parent)
chain: UAACAGGGGGCCACAGCAGAAGCGUUCACGUCGCAGCCCCUGUCAGAUUCUGGUGAAUCUGCGAAUUCUGCUGUAUAUCUC

The source gives no read counts; variants with many changes may rest on few reads.

This data set covers variants of B1. Description: self-cleavage, relative activity (ratio to wild type); higher = more cleavage; in vitro, sequencing. In short, it runs like this: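 Relative activity was defined as the cleaved/total read fraction for a variant divided by the same fraction for the unmutated ribozyme. CPEB3 self-cleaving ribozyme libraries were made by rounds of error-prone PCR, barcoded, and transcribed in vitro with T7 RNA polymerase for 5 hours at 37°C, and cleavage ran through transcription plus a 15 min DNase I step before EDTA. Illumina sequencing of template-switched reverse transcripts gave the reads, and DNA sequencing mapped the barcodes. Averages come from three batches, using variants with at least 5 reads.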
For the variant UAACAGGGGGUCACAGCUGAGGCGUUCACGUCGCAGCCCCUGUCAGAUACUGGUGAAUCUGCGAAUUCUGCUGUAUUUCUC [C11U A18U A21G U49A A77U], the self-cleavage came to 0.05. Consider UAACAGGGGGUCACAGCAGGAGCGUACACGUCGCAGCCCCCGUCAGAUUCUGGUGGAUCUGCGUAUUCUGCUGUAUAUCUC [C11U A20G U26A U41C A56G A64U], for which the self-cleavage came to 0.08.

As for UAACAGGGGGUCACAGCGGAAGCGUUCACGUCGCAGGCCCUGUCAGAUUCUGGAGAAUCAGCGAAUUCUGCUGUGUAUGUC [C11U A18G C37G U54A U60A A75G C79G], the self-cleavage turned out to be 0.06. UAACAGGGGGUCACAGCAGAGGCGUUUACGUCGCAGCCCCUGUCAGAUUCUGGUGAGUCUGCGAGUUCUGCUGUAUAUCUC [C11U A21G C27U A57G A65G]: the self-cleavage came out at 0.06. Regarding UAACAGGGGGUCACAGCAGUAGCGUCCACGUCGCAGCCCCUGUCAGACUCCGGUGAAUCUGCGGAUUCUGCUGUGUAUCUC [C11U A20U U26C U48C U51C A64G A75G], the self-cleavage stood at 0.03. Regarding UAACAGGGGGGCACAGCAGAAGCGUUCACGUCGCAGCCCCUGUCAGAUUCUGGUGAAUCUGCGAAUUCAGCCGUAUAUCUC [C11G U69A U72C], the self-cleavage amounted to 0.27.

Take UAACAGGGGGUCACAGCGUAAGCGUUCACGUCGCAGCCCCUGUCAGAUUCUGGUGAAUCUGCGAAUUCAGCUGUAUAUCUC [C11U A18G G19U U69A]: the self-cleavage was determined as 0.06. With UAACAGGGGGUCACAGCGGAAGCGUUCGCGUCGCAACCCCAGUCAGAUUCUGGUGAUUCUGCGAAUUCUGCUGUAUAUCAC [C11U A18G A28G G36A U41A A57U U80A], the self-cleavage stood at 0.03. On to UAACAGGGGGUCACUGCAGAAGCGUUCACGACGCUGCCCCUGCCAGAUUCUGGUGAAUCUGCGGAUUCUGCUGUCUAUCUC [C11U A15U U31A A35U U43C A64G A75C], for which the self-cleavage stood at 0.03. For the variant UAACAGGGGGUCACUGCAGAGGCGUUCACGUCGCAGCCCGUGUCAGAUUCUGGUGAAUCUGCGAGUUCUGCUGUAUAUCUC [C11U A15U A21G C40G A65G], the self-cleavage came out at 0.06. The value for UAACAGGGGGUCACAGCAGGAGCGUUCACGUCGCUGCCCCUGUCAGAUUCUGGUGGAUCAGCGAAUUCUGCUGUUUACCUC [C11U A20G A35U A56G U60A A75U U78C] was 0.28. The value for UAACAGGGGGUCACAGCAGUAGCGUUCACGUCGCAGCCCCUGUCAGAUUCUGGUUAAUCUGCGAAGUCUGCAGUAUAUCUC [C11U A20U G55U U66G U72A] was 0.09; that for UAACAGGGGGUCACAGCAGAGGCGUUCACGUCGCAGCCCCUGUCAGAUUCUGGUCAAUCUGCGGAUUCUGCUGUAUAUCUC [C11U A21G G55C A64G] was 0.16. On to UAACAGGGGGUCACAGCAGGAGCGUUCACGUCGCAGCCCCUGACAGAUUCUGGUGAAUCUGCGAAUUCUCCUGUACAUCUC [C11U A20G U43A G70C U76C], for which the self-cleavage turned out to be 0.14. UAACAGGGGGUCGCAGCAGAAGCGCUCACGUCGCAGCCCCCGUCAGAUUCUGGUGAAUCUGCGAAUUCUGCUGUAUAUCUC [C11U A13G U25C U41C]: the self-cleavage was 0.3. For UAACAGGGGGUCGCAGCAGAAGCGUUCGCGUCGCAGCCCCUGUCAGAUUCUGGUGAAUCUGCGGAUUCUGCUGUAUAUCUC [C11U A13G A28G A64G], the self-cleavage is 0.22.

On to UAACAGGGGGUCACAGCUGUGGCGCUCACGUCGCAGCCCCUGUCAGAUUCUGGUGAAUCUGCGAAUUCUGUUGUAUAUCUC [C11U A18U A20U A21G U25C C71U], for which the self-cleavage stood at 0.04.

As for UAACAGGGGGUCACAGCGGAAGCGUGCACGUCGCAGCCCCAGUCAGAUUCUGGUGAAUCCGCGAAUUCUGCUGUAUAUCUC [C11U A18G U26G U41A U60C], the self-cleavage amounted to 0.06. Take UAACAGGGGGGCACAGCAGAAGCGUUCACGUCGCAGCCCCUGUCAGAUUCUGGUGAAUCUGCGAAUUCAGCUGUUUAUCUC [C11G U69A A75U]: the self-cleavage worked out at 0.26. The value for UAACAGGGGGUCACAGCGGAAGCAUUCACGUCGCAGCCCCUGUCAGAUCCUGGUGAAUCUGCGAAUUCUGCUGUAUAUCUC [C11U A18G G24A U49C] was 0.04; that for UAACAGGGGGUCACCGCAGGAGCGUUCACGUCGCAGCCCCUGUCAGAUUCUGGUGAACCUGCGAAUUCUGCUGUAUAUCUC [C11U A15C A20G U58C] was 0.24; that for UAACAGGGGGUCACAGCAGGAGCGCUCACGUCGCAGCCCCUGUCAGAUUCUGGUGGAUCUGCGGAUUCUGCUGUAUAUCUC [C11U A20G U25C A56G A64G] was 0.09.

Regarding UAACAGGGGGUCGCAGCAGAAGCGUACACGUCGCAGCCCCUGUCAGAUUCUGGUGAAUCUGCGAAUUCUGCUGUAUAUCCC [C11U A13G U26A U80C], the self-cleavage worked out at 0.45. UAACAGGGGGUCACAGCAGUAGCGUUCACGUCGCAGCCCCUGUCAGAUUCUGGCGAAUCUGCGUAUUCUGCUGAACAUCUC [C11U A20U U54C A64U U74A U76C]: the self-cleavage was found to be 0.04.

Take UAACAGGGGGUCGCAGCAGAAGCGUUCAGGUCGCAGCCCCCGUCAGAUUCUGGUGAAUCUGCGAAUCCCGCUGUAUAUCUC [C11U A13G C29G U41C U67C U69C]: the self-cleavage was 0.04. On to UAACAGGGGGUCACAGCGGAAGCGUCCACGUCGCAGCCCCUGUCAGAUUCUGGUGAAUCUGCGAAUUCUGAUGUAUAUCUC [C11U A18G U26C C71A], for which the self-cleavage was found to be 0.11. Next, UAACAGGGGGUCACAGCAGAGGCGUUAACGUCGCAGCCCCUGUCAGGUUCUGGUGGGUCUGCGAAUUCUGCUGUAUAUCUC [C11U A21G C27A A47G A56G A57G]: 0.03; UAACAGGGGGUCGCAGCAGAAGCGUUCACGUCGCAGCCCCUGUCAGAUUCUGGUGAAUCUGCGGAUUCUGCUGUAUAUCUC [C11U A13G A64G]: 0.38.

UAACAGGGGGUCACAGCAGGAGCGUUCGCGUCGCAGCCCCUGUCAGAUUCUGGUGAAUCUGCGAAUUCUGCUGUAUAUAUC [C11U A20G A28G C79A]: the self-cleavage turned out to be 0.16. Turning to UAACAGGGGGUCACAGCGGAAGCGUUCACGUAGCAGCCCCUGUCAGAUUCUGGUGAAUCUGCGAAUUCUGCUGUAUAUCUC [C11U A18G C32A], the self-cleavage was 0.04. The value for UAACAGGGGGUCACAGCGGGAGCGUUCACGUCGCAGCCCCUGUCGGAUUCUGGUGAAUCUGCGAAUUCUGCUGUAUAUCUC [C11U A18G A20G A45G] was 0.22; that for UAACAGGGGGUCGCAGCAGAAGCGUUCACGUCGCAGCCCCUGCCAGAUUCUGGUGAAUCUGCGAAUUCUGCUGUAUAUCCC [C11U A13G U43C U80C] was 0.27; that for UAACAGGGGGUCACGGCAGAAGCGUUCACGUCGCAGCCCCUGUCAGAUCCUGGUUAAUCUGCGUAUUCUGCUGUAUAUCUC [C11U A15G U49C G55U A64U] was 0.09. With UAACAGGGGGUCACAGCAGAGGCGUUCACGUCGCAGCCCCUGUCAGAUUCUGGUGACCCUGCGAAUUCCGCUGGAUAUCUC [C11U A21G A57C U58C U69C U74G], the self-cleavage stood at 0.05.
